From the supplement of paper PMC9151546
Single values are uncertain, as repeats are few or missing.

What was measured:
[1] = system: CHO-K1; test: relative survival (nuclei to bead ratio vs DMSO control) (% of vehicle control); higher = more surviving cells
Procedure: (§1)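 Flow-cytometric in vitro micronucleus assay (Litron MicroFlow) in CHO-K1 cells in 96-well plates, 19 concentrations (4.5-200 µM, n=1 per concentration). Without S9, cells were exposed for 24 h and sampled at 48 h. With Aroclor 1254-induced rat liver S9, cells were exposed for 3-4 h and sampled at 27-28 h. Read-outs are %MN and %hypodiploid nuclei relative to nucleated events, and relative survival as the nuclei-to-bead ratio versus the 1% DMSO vehicle control (x100).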

[2] = system: CHO-K1; test: hypodiploid nuclei frequency (% of nucleated events); higher = more hypodiploid events (aneugenic)
Procedure: as §1

[3] = system: CHO-K1; test: micronucleus frequency (% of nucleated events); higher = more micronuclei (genotoxic)
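For hypodiploid nuclei frequency (% of nucleated events) in this document: hypodiploid nuclei gated on a flow cytometer with 488 nm excitation after SYTOX Green staining, cultures at 37 °C, positive controls vinblastine without S9 and cyclophosphamide with S9.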
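For micronucleus frequency (% of nucleated events) in this document: cells lysed with nuclei stained by SYTOX Green, then micronucleus-gated events counted against nucleated events by flow cytometry with 488 nm excitation.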
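For relative survival (nuclei to bead ratio vs DMSO control) in this document: Lysed-cell nuclei stained with SYTOX Green and counted against counting beads by flow cytometry at 488 nm excitation, with vinblastine (no S9) and cyclophosphamide (plus S9) as positive controls.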

Cc1ccc([N+](=O)[O-])cc1N [2-Methyl-5-nitroaniline]
Conditions	hypodiploid nuclei frequency, [2] [%]	micronucleus frequency, [3] [%]	relative survival, [1]
concentration: 4.5 (µM), S9 metabolic activation: with S9, exposure time: 3-4 hours	0.36	1.18	107
concentration: 4.5 (µM), S9 metabolic activation: without S9, exposure time: 24 hours	3.18	2.96	99
concentration: 5.63 (µM), S9 metabolic activation: with S9, exposure time: 3-4 hours	0.26	1.38	106
concentration: 5.63 (µM), S9 metabolic activation: without S9, exposure time: 24 hours	2.24	2.28	105
concentration: 7.04 (µM), S9 metabolic activation: with S9, exposure time: 3-4 hours	0.36	1.26	99.4
concentration: 7.04 (µM), S9 metabolic activation: without S9, exposure time: 24 hours	2.46	2.04	97.8
concentration: 8.8 (µM), S9 metabolic activation: with S9, exposure time: 3-4 hours	0.28	1.5	106
concentration: 8.8 (µM), S9 metabolic activation: without S9, exposure time: 24 hours	2	2.06	99.8
concentration: 11 (µM), S9 metabolic activation: with S9, exposure time: 3-4 hours	0.28	1.44	109
concentration: 11 (µM), S9 metabolic activation: without S9, exposure time: 24 hours	2.18	2.4	94.3
concentration: 13.7 (µM), S9 metabolic activation: with S9, exposure time: 3-4 hours	0.18	1.2	133
concentration: 13.7 (µM), S9 metabolic activation: without S9, exposure time: 24 hours	1.9	2.5	95.8
concentration: 17.2 (µM), S9 metabolic activation: with S9, exposure time: 3-4 hours	0.2	1.2	109
concentration: 17.2 (µM), S9 metabolic activation: without S9, exposure time: 24 hours	1.68	2.7	114
concentration: 21.5 (µM), S9 metabolic activation: with S9, exposure time: 3-4 hours	0.4	1.58	113
concentration: 21.5 (µM), S9 metabolic activation: without S9, exposure time: 24 hours	1.52	2.52	95.1
concentration: 26.8 (µM), S9 metabolic activation: with S9, exposure time: 3-4 hours	0.28	1.22	101
concentration: 26.8 (µM), S9 metabolic activation: without S9, exposure time: 24 hours	2.92	1.76	88.2
concentration: 33.6 (µM), S9 metabolic activation: with S9, exposure time: 3-4 hours	0.36	1.56	114
concentration: 33.6 (µM), S9 metabolic activation: without S9, exposure time: 24 hours	2.16	1.44	107
concentration: 41.9 (µM), S9 metabolic activation: with S9, exposure time: 3-4 hours	0.3	1.54	113
concentration: 41.9 (µM), S9 metabolic activation: without S9, exposure time: 24 hours	1.6	2.08	95.5
concentration: 52.4 (µM), S9 metabolic activation: with S9, exposure time: 3-4 hours	0.34	1.36	121
concentration: 52.4 (µM), S9 metabolic activation: without S9, exposure time: 24 hours	2.2	1.96	98.2
concentration: 65.5 (µM), S9 metabolic activation: with S9, exposure time: 3-4 hours	0.36	1.52	122
concentration: 65.5 (µM), S9 metabolic activation: without S9, exposure time: 24 hours	2.56	3.08	89.2
concentration: 81.9 (µM), S9 metabolic activation: with S9, exposure time: 3-4 hours	0.5	1.46	126
concentration: 81.9 (µM), S9 metabolic activation: without S9, exposure time: 24 hours	2.12	2.14	116
concentration: 102 (µM), S9 metabolic activation: with S9, exposure time: 3-4 hours	0.3	1.98	118
concentration: 102 (µM), S9 metabolic activation: without S9, exposure time: 24 hours	2.14	2.24	94.3
concentration: 128 (µM), S9 metabolic activation: with S9, exposure time: 3-4 hours	0.38	2.56	110
concentration: 128 (µM), S9 metabolic activation: without S9, exposure time: 24 hours	2.28	2.52	96.2
concentration: 160 (µM), S9 metabolic activation: with S9, exposure time: 3-4 hours	0.4	1.84	113
concentration: 160 (µM), S9 metabolic activation: without S9, exposure time: 24 hours	2.32	2.96	105
concentration: 200 (µM), S9 metabolic activation: with S9, exposure time: 3-4 hours	0.4	2.08	123
concentration: 200 (µM), S9 metabolic activation: without S9, exposure time: 24 hours	2.58	4.04	85.7

c1ccc2c(c1)-c1cccc3c1c-2cc1ccccc13 [Benzo(b)fluoranthene]
Conditions	hypodiploid nuclei frequency, [2] [%]	micronucleus frequency, [3] [%]	relative survival, [1]
concentration: 4.5 (µM), S9 metabolic activation: with S9, exposure time: 3-4 hours	0.08	1.26	74.5
concentration: 4.5 (µM), S9 metabolic activation: without S9, exposure time: 24 hours	0.64	1.82	89.8
concentration: 5.63 (µM), S9 metabolic activation: with S9, exposure time: 3-4 hours	0.2	0.86	76.1
concentration: 5.63 (µM), S9 metabolic activation: without S9, exposure time: 24 hours	0.66	1.42	73.4
concentration: 7.04 (µM), S9 metabolic activation: with S9, exposure time: 3-4 hours	0.28	1.44	74
concentration: 7.04 (µM), S9 metabolic activation: without S9, exposure time: 24 hours	0.42	1.9	97.2
concentration: 8.8 (µM), S9 metabolic activation: with S9, exposure time: 3-4 hours	0.24	1.38	78.6
concentration: 8.8 (µM), S9 metabolic activation: without S9, exposure time: 24 hours	0.42	1.66	97.2
concentration: 11 (µM), S9 metabolic activation: with S9, exposure time: 3-4 hours	0.22	1.46	84.4
concentration: 11 (µM), S9 metabolic activation: without S9, exposure time: 24 hours	0.56	1.84	93.7
concentration: 13.7 (µM), S9 metabolic activation: with S9, exposure time: 3-4 hours	0.18	1.8	86.2
concentration: 13.7 (µM), S9 metabolic activation: without S9, exposure time: 24 hours	0.48	1.6	85.4
concentration: 17.2 (µM), S9 metabolic activation: with S9, exposure time: 3-4 hours	0.3	2	60.4
concentration: 17.2 (µM), S9 metabolic activation: without S9, exposure time: 24 hours	0.6	2.08	92.7
concentration: 21.5 (µM), S9 metabolic activation: with S9, exposure time: 3-4 hours	0.4	2.62	74.8
concentration: 21.5 (µM), S9 metabolic activation: without S9, exposure time: 24 hours	0.7	2.02	95.4
concentration: 26.8 (µM), S9 metabolic activation: with S9, exposure time: 3-4 hours	–	–	32.6
concentration: 26.8 (µM), S9 metabolic activation: without S9, exposure time: 24 hours	0.62	1.52	76.2
concentration: 33.6 (µM), S9 metabolic activation: with S9, exposure time: 3-4 hours	–	–	27.1
concentration: 33.6 (µM), S9 metabolic activation: without S9, exposure time: 24 hours	0.62	1.18	81.7
concentration: 41.9 (µM), S9 metabolic activation: with S9, exposure time: 3-4 hours	–	–	16.2
concentration: 41.9 (µM), S9 metabolic activation: without S9, exposure time: 24 hours	0.64	1.98	93.4
concentration: 52.4 (µM), S9 metabolic activation: with S9, exposure time: 3-4 hours	–	–	17
concentration: 52.4 (µM), S9 metabolic activation: without S9, exposure time: 24 hours	0.64	2.12	77.6
concentration: 65.5 (µM), S9 metabolic activation: with S9, exposure time: 3-4 hours	–	–	22.2
concentration: 65.5 (µM), S9 metabolic activation: without S9, exposure time: 24 hours	0.8	1.76	69.3
concentration: 81.9 (µM), S9 metabolic activation: with S9, exposure time: 3-4 hours	–	–	12.9
concentration: 81.9 (µM), S9 metabolic activation: without S9, exposure time: 24 hours	0.6	2.48	68.8
concentration: 102 (µM), S9 metabolic activation: with S9, exposure time: 3-4 hours	–	–	19
concentration: 102 (µM), S9 metabolic activation: without S9, exposure time: 24 hours	0.82	1.66	83.3
concentration: 128 (µM), S9 metabolic activation: with S9, exposure time: 3-4 hours	–	–	16.4
concentration: 128 (µM), S9 metabolic activation: without S9, exposure time: 24 hours	1.18	2.12	53.4
concentration: 160 (µM), S9 metabolic activation: with S9, exposure time: 3-4 hours	–	–	22.1
concentration: 160 (µM), S9 metabolic activation: without S9, exposure time: 24 hours	1.52	2.68	76.7
concentration: 200 (µM), S9 metabolic activation: with S9, exposure time: 3-4 hours	–	–	28.9
concentration: 200 (µM), S9 metabolic activation: without S9, exposure time: 24 hours	1.14	2.92	85.2
